Assay results reported in the supplement of paper PMC8728848.
The list shows a part of the results.

How the values were obtained:
Assay in all cases: glycan array binding signal (z-score within array); higher = stronger binding
Conditions in all cases: glycan notation: IUPAC condensed, linker removed
[1] = target: Neu5Ac(a2-3)GalNAc(b1-4)GlcNAc
Procedure, shortened: (§1)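 Arrays were curated from the Consortium for Functional Glycomics database, 3228 in total, and kept only where the protein sequence was available. Binding is expressed as a within-array Z-score. This score was averaged across arrays of the same protein sequence at different concentrations or buffers and across linkers, and negative values can be read as non-binding.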

[2] = target: Neu5Ac(a2-3)[GalNAc(b1-4)]Gal(b1-4)Glc
Procedure, shortened: as §1

[3] = target: Neu5Ac(a2-3)[GalNAc(b1-4)]Gal(b1-4)GlcNAc
Procedure, shortened: as §1

[4] = target: Neu5Ac(a2-3)[GalNAc(b1-4)]Gal(b1-4)GlcNAc(b1-3)GalNAc
Procedure, shortened: as §1

[5] = target: Neu5Ac(a2-3)[Neu5Ac(a2-6)]GalNAc
Procedure, shortened: as §1

Neu5Ac(a2-6)Gal = target: Neu5Ac(a2-6)Gal
Procedure, shortened: as §1

[6] = target: Neu5Ac(a2-6)Gal(b1-3)GlcNAc(b1-3)[Gal(b1-4)GlcNAc(b1-6)]Gal(b1-4)Glc
Procedure, shortened: as §1

Neu5Ac(a2-6)Gal(b1-4)Glc = target: Neu5Ac(a2-6)Gal(b1-4)Glc
Procedure, shortened: as §1

[7] = target: Neu5Ac(a2-6)Gal(b1-4)GlcNAc
Procedure, shortened: as §1

[8] = target: Neu5Ac(a2-6)Gal(b1-4)GlcNAc(b1-2)Man
Procedure, shortened: as §1

[9] = target: Neu5Ac(a2-6)Gal(b1-4)GlcNAc(b1-2)Man(a1-3)Man(b1-4)GlcNAc(b1-4)GlcNAc
Procedure, shortened: as §1

[10] = target: Neu5Ac(a2-6)Gal(b1-4)GlcNAc(b1-2)Man(a1-3)[Gal(b1-4)GlcNAc(b1-2)Man(a1-6)]Man(b1-4)GlcNAc(b1-4)GlcNAc
Procedure, shortened: as §1

[11] = target: Neu5Ac(a2-6)Gal(b1-4)GlcNAc(b1-2)Man(a1-3)[GlcNAc(b1-2)Man(a1-6)]Man(b1-4)GlcNAc(b1-4)GlcNAc
Procedure, shortened: as §1

[12] = target: Neu5Ac(a2-6)Gal(b1-4)GlcNAc(b1-2)Man(a1-3)[GlcNAc(b1-4)][Neu5Ac(a2-6)Gal(b1-4)GlcNAc(b1-2)Man(a1-6)]Man(b1-4)GlcNAc(b1-4)GlcNAc
Procedure, shortened: as §1

[13] = target: Neu5Ac(a2-6)Gal(b1-4)GlcNAc(b1-2)Man(a1-3)[Man(a1-6)]Man(b1-4)GlcNAc(b1-4)GlcNAc
Procedure, shortened: as §1

[14] = target: Neu5Ac(a2-6)Gal(b1-4)GlcNAc(b1-2)Man(a1-3)[Neu5Ac(a2-3)Gal(b1-4)GlcNAc(b1-2)Man(a1-6)]Man(b1-4)GlcNAc(b1-4)GlcNAc
Procedure, shortened: as §1

[15] = target: Neu5Ac(a2-6)Gal(b1-4)GlcNAc(b1-2)Man(a1-3)[Neu5Ac(a2-6)Gal(b1-4)GlcNAc(b1-2)Man(a1-6)]Man(b1-4)GlcNAc(b1-4)GlcNAc
Procedure, shortened: as §1

[16] = target: Neu5Ac(a2-6)Gal(b1-4)GlcNAc(b1-2)Man(a1-3)[Neu5Ac(a2-6)Gal(b1-4)GlcNAc(b1-2)Man(a1-6)]Man(b1-4)GlcNAc(b1-4)[Fuc(a1-6)]GlcNAc
Procedure, shortened: as §1

[17] = target: Neu5Ac(a2-6)Gal(b1-4)GlcNAc(b1-2)Man(a1-6)Man(b1-4)GlcNAc(b1-4)GlcNAc
Procedure, shortened: as §1

[18] = target: Neu5Ac(a2-6)Gal(b1-4)GlcNAc(b1-2)Man(a1-6)[Gal(b1-4)GlcNAc(b1-2)Man(a1-3)]Man(b1-4)GlcNAc(b1-4)GlcNAc
Procedure, shortened: as §1

[19] = target: Neu5Ac(a2-6)Gal(b1-4)GlcNAc(b1-2)Man(a1-6)[GlcNAc(b1-2)Man(a1-3)]Man(b1-4)GlcNAc(b1-4)GlcNAc
Procedure, shortened: as §1

[20] = target: Neu5Ac(a2-6)Gal(b1-4)GlcNAc(b1-2)Man(a1-6)[Man(a1-3)]Man(b1-4)GlcNAc(b1-4)GlcNAc
Procedure, shortened: as §1

[21] = target: Neu5Ac(a2-6)Gal(b1-4)GlcNAc(b1-2)[Neu5Ac(a2-6)Gal(b1-4)GlcNAc(b1-4)]Man(a1-3)[GlcNAc(b1-4)][Neu5Ac(a2-6)Gal(b1-4)GlcNAc(b1-2)[Neu5Ac(a2-6)Gal(b1-4)GlcNAc(b1-6)]Man(a1-6)]Man(b1-4)GlcNAc(b1-4)GlcNAc
Procedure, shortened: as §1

[22] = target: Neu5Ac(a2-6)Gal(b1-4)GlcNAc(b1-2)[Neu5Ac(a2-6)Gal(b1-4)GlcNAc(b1-4)]Man(a1-3)[GlcNAc(b1-4)][Neu5Ac(a2-6)Gal(b1-4)GlcNAc(b1-4)Man(a1-6)]Man(b1-4)GlcNAc(b1-4)GlcNAc
Procedure, shortened: as §1

[23] = target: Neu5Ac(a2-6)Gal(b1-4)GlcNAc(b1-2)[Neu5Ac(a2-6)Gal(b1-4)GlcNAc(b1-6)]Man(a1-6)[Neu5Ac(a2-6)Gal(b1-4)GlcNAc(b1-2)Man(a1-3)][GlcNAc(b1-4)]Man(b1-4)GlcNAc(b1-4)GlcNAc
Procedure, shortened: as §1

[24] = target: Neu5Ac(a2-6)Gal(b1-4)GlcNAc(b1-3)Gal(b1-3)GlcNAc
Procedure, shortened: as §1

[25] = target: Neu5Ac(a2-6)Gal(b1-4)GlcNAc(b1-3)Gal(b1-4)GlcNAc
Procedure, shortened: as §1

[26] = target: Neu5Ac(a2-6)Gal(b1-4)GlcNAc(b1-3)Gal(b1-4)GlcNAc(b1-2)Man(a1-3)[Neu5Ac(a2-6)Gal(b1-4)GlcNAc(b1-3)Gal(b1-4)GlcNAc(b1-2)Man(a1-6)]GalNAc
Procedure, shortened: as §1

[27] = target: Neu5Ac(a2-6)Gal(b1-4)GlcNAc(b1-3)Gal(b1-4)GlcNAc(b1-3)Gal(b1-4)GlcNAc
Procedure, shortened: as §1

[28] = target: Neu5Ac(a2-6)Gal(b1-4)GlcNAc(b1-3)Gal(b1-4)GlcNAc(b1-3)Gal(b1-4)GlcNAc(b1-2)Man(a1-3)[Neu5Ac(a2-6)Gal(b1-4)GlcNAc(b1-3)Gal(b1-4)GlcNAc(b1-3)Gal(b1-4)GlcNAc(b1-2)Man(a1-6)]GalNAc
Procedure, shortened: as §1

[29] = target: Neu5Ac(a2-6)Gal(b1-4)GlcNAc(b1-3)Gal(b1-4)GlcNAc(b1-3)GalNAc
Procedure, shortened: as §1

[30] = target: Neu5Ac(a2-6)Gal(b1-4)GlcNAc(b1-3)Gal(b1-4)GlcNAc(b1-3)[Neu5Ac(a2-6)Gal(b1-4)GlcNAc(b1-3)Gal(b1-4)GlcNAc(b1-6)]GalNAc
Procedure, shortened: as §1

[31] = target: Neu5Ac(a2-6)Gal(b1-4)GlcNAc(b1-3)Gal(b1-4)GlcNAc(b1-6)[Gal(b1-3)]GalNAc
Procedure, shortened: as §1

[32] = target: Neu5Ac(a2-6)Gal(b1-4)GlcNAc(b1-3)Gal(b1-4)[Fuc(a1-3)]GlcNAc(b1-3)Gal(b1-4)[Fuc(a1-3)]GlcNAc
Procedure, shortened: as §1

[33] = target: Neu5Ac(a2-6)Gal(b1-4)GlcNAc(b1-3)GalNAc
Procedure, shortened: as §1

[34] = target: Neu5Ac(a2-6)Gal(b1-4)GlcNAc(b1-3)[Neu5Ac(a2-6)Gal(b1-4)GlcNAc(b1-6)]GalNAc
Procedure, shortened: as §1

[35] = target: Neu5Ac(a2-6)Gal(b1-4)GlcNAc(b1-6)GalNAc
Procedure, shortened: as §1

[36] = target: Neu5Ac(a2-6)Gal(b1-4)GlcNAc(b1-6)[Gal(b1-3)GlcNAc(b1-3)]Gal(b1-4)Glc
Procedure, shortened: as §1

[37] = target: Neu5Ac(a2-6)Gal(b1-4)GlcNAc(b1-6)[Gal(b1-3)]GalNAc
Procedure, shortened: as §1

[38] = target: Neu5Ac(a2-6)Gal(b1-4)GlcNAc6S
Procedure, shortened: as §1

Neu5Ac(a2-6)GalNAc = target: Neu5Ac(a2-6)GalNAc
Procedure, shortened: as §1

[39] = target: Neu5Ac(a2-6)GalNAc(b1-4)GlcNAc
Procedure, shortened: as §1

[40] = target: Neu5Ac(a2-6)GalNAc(b1-4)GlcNAc6S
Procedure, shortened: as §1

[41] = target: Neu5Ac(a2-6)GlcNAc(b1-4)GlcNAc
Procedure, shortened: as §1

[42] = target: Neu5Ac(a2-6)GlcNAc(b1-4)GlcNAc(b1-4)GlcNAc
Procedure, shortened: as §1

B1: F17-L (Escherichia coli) (protein)
chain: GPDDYVPSQIAVNTSTLPGVVIGPADAHTYPRVIGELAGTSNQYVFNGGAIALMRGKFTPALPKIGSITYTFHQGNSRDSSDFDIYDIGVSGLGIIIGMAGYWPATPLVPINSSGIYIDPVGANTNPNTYNGATASFGARLFVAFVATGRLPNGYITIPTRQLGTILLEAKRTSLNNKGLTAPVMLNGGRIQVQSQTHHHHHH
- glycan array binding signal (z-score) [1]: 0.087
- glycan array binding signal (z-score) [2]: -0.098
- glycan array binding signal (z-score) [3]: -0.098
- glycan array binding signal (z-score) [4]: -0.095
- glycan array binding signal (z-score) [5]: -0.055
- glycan array binding signal (z-score) (Neu5Ac(a2-6)Gal): -0.103
- glycan array binding signal (z-score) [6]: -0.133
- glycan array binding signal (z-score) (Neu5Ac(a2-6)Gal(b1-4)Glc): 0.015
- glycan array binding signal (z-score) [7]: -0.165
- glycan array binding signal (z-score) [8]: -0.134
- glycan array binding signal (z-score) [9]: -0.107
- glycan array binding signal (z-score) [10]: -0.142
- glycan array binding signal (z-score) [11]: -0.117
- glycan array binding signal (z-score) [12]: -0.129
- glycan array binding signal (z-score) [13]: -0.093
- glycan array binding signal (z-score) [14]: -0.128
- glycan array binding signal (z-score) [15]: -0.129
- glycan array binding signal (z-score) [16]: -0.145
- glycan array binding signal (z-score) [17]: -0.121
- glycan array binding signal (z-score) [18]: -0.069
- glycan array binding signal (z-score) [19]: -0.204
- glycan array binding signal (z-score) [20]: -0.171
- glycan array binding signal (z-score) [21]: -0.158
- glycan array binding signal (z-score) [22]: -0.063
- glycan array binding signal (z-score) [23]: -0.072
- glycan array binding signal (z-score) [24]: -0.103
- glycan array binding signal (z-score) [25]: -0.069
- glycan array binding signal (z-score) [26]: -0.091
- glycan array binding signal (z-score) [27]: -0.186
- glycan array binding signal (z-score) [28]: 0.087
- glycan array binding signal (z-score) [29]: -0.132
- glycan array binding signal (z-score) [30]: -0.014
- glycan array binding signal (z-score) [31]: -0.112
- glycan array binding signal (z-score) [32]: -0.091
- glycan array binding signal (z-score) [33]: 0.078
- glycan array binding signal (z-score) [34]: -0.047
- glycan array binding signal (z-score) [35]: -0.152
- glycan array binding signal (z-score) [36]: -0.155
- glycan array binding signal (z-score) [37]: -0.149
- glycan array binding signal (z-score) [38]: -0.097
- glycan array binding signal (z-score) (Neu5Ac(a2-6)GalNAc): -0.135
- glycan array binding signal (z-score) [39]: -0.15
- glycan array binding signal (z-score) [40]: -0.14
- glycan array binding signal (z-score) [41]: -0.12
- glycan array binding signal (z-score) [42]: -0.088
